Some of the results follow.
Key:
Test in all cases: glycan array binding signal (z-score within array); higher = stronger binding
Conditions in all cases: glycan notation: IUPAC condensed, linker removed
[1] = target: Gal(b1-4)GlcNAc(b1-3)GalNAc
Outline: (§1)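 Negative Z-scores can be read as non-binding. The Z-score is calculated within each array and then averaged across arrays of one protein sequence at different concentrations or buffers and across linkers. Arrays, 3228 in all, were curated from the Consortium for Functional Glycomics database and kept only where the protein sequence was available.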

[2] = target: Gal(b1-4)GlcNAc(b1-3)[Gal(b1-4)GlcNAc(b1-6)]GalNAc
Outline: as §1

[3] = target: Gal(b1-4)GlcNAc(b1-6)Gal(b1-4)GlcNAc(b1-6)GalNAc
Outline: as §1

[4] = target: Gal(b1-4)GlcNAc(b1-6)GalNAc
Outline: as §1

[5] = target: Gal(b1-4)GlcNAc(b1-6)[Gal(b1-3)]GalNAc
Outline: as §1

[6] = target: Gal3S(b1-3)GalNAc
Outline: as §1

[7] = target: Gal3S(b1-3)GlcNAc
Outline: as §1

[8] = target: Gal3S(b1-3)[Fuc(a1-4)]GlcNAc
Outline: as §1

[9] = target: Gal3S(b1-4)Glc
Outline: as §1

[10] = target: Gal3S(b1-4)Glc6S
Outline: as §1

[11] = target: Gal3S(b1-4)GlcNAc
Outline: as §1

[12] = target: Gal3S(b1-4)GlcNAc6S
Outline: as §1

[13] = target: Gal3S6S(b1-4)GlcNAc
Outline: as §1

[14] = target: Gal3S6S(b1-4)GlcNAc6S
Outline: as §1

[15] = target: Gal4S(b1-4)GlcNAc
Outline: as §1

[16] = target: Gal4S6S(b1-4)GlcNAc
Outline: as §1

[17] = target: Gal6S(b1-4)Glc
Outline: as §1

[18] = target: Gal6S(b1-4)Glc6S
Outline: as §1

[19] = target: Gal6S(b1-4)GlcNAc
Outline: as §1

[20] = target: GalNAc(a1-3)Gal
Outline: as §1

[21] = target: GalNAc(a1-3)GalNAc
Outline: as §1

[22] = target: GalNAc(b1-3)Gal(a1-4)Gal(b1-4)GlcNAc
Outline: as §1

[23] = target: GalNAc(b1-3)GalNAc
Outline: as §1

[24] = target: GalNAc(b1-4)GlcNAc
Outline: as §1

[25] = target: Glc(a1-4)Glc
Outline: as §1

[26] = target: Glc(a1-6)Glc(a1-6)Glc
Outline: as §1

[27] = target: Glc(b1-4)Glc
Outline: as §1

[28] = target: Glc(b1-6)Glc
Outline: as §1

[29] = target: GlcA(b1-3)Gal
Outline: as §1

[30] = target: GlcA(b1-6)Gal
Outline: as §1

[31] = target: GlcNAc(a1-3)Gal(b1-4)GlcNAc
Outline: as §1

[32] = target: GlcNAc(a1-6)Gal(b1-4)GlcNAc
Outline: as §1

[33] = target: GlcNAc(b1-2)Gal(b1-3)GalNAc
Outline: as §1

[34] = target: GlcNAc(b1-2)Man(a1-3)[GlcNAc(b1-2)Man(a1-6)]Man(b1-4)GlcNAc(b1-4)GlcNAc
Outline: as §1

[35] = target: GlcNAc(b1-3)Gal
Outline: as §1

[36] = target: GlcNAc(b1-3)Gal(b1-3)GalNAc
Outline: as §1

[37] = target: GlcNAc(b1-3)Gal(b1-4)Glc
Outline: as §1

B1: SIGNR8 (Mus musculus) (protein)
chain: MAGEPEFHQSKNHEEEVTSGEQGFAEHDPEGLICSSKSLQGHLTQVPWLLLLLISLGLFLLMLATLVQVSRIRAYSQGQTQDQQGSSSLDKVAVPREQTHSGLEQIQQIQQQLTQFNASLAGLCRPCPWDWELFQGSCYLFSRTLGSWETSASSCEDLGAHLVIVNSVSEQRFMKYWNVRKNQRSWIGLSDHIHEGSWQWVDGSALKFSFWKEGEPNNDGDEDCVELFMDDWNDNKCTEQNFWVCEQPSAPCPHH
glycan array binding signal (z-score) [1]: 2.89 | glycan array binding signal (z-score) [2]: 2.68 | glycan array binding signal (z-score) [3]: 2.17 | glycan array binding signal (z-score) [4]: 1.28 | glycan array binding signal (z-score) [5]: 2.18 | glycan array binding signal (z-score) [6]: -0.358 | glycan array binding signal (z-score) [7]: -0.363 | glycan array binding signal (z-score) [8]: -0.369 | glycan array binding signal (z-score) [9]: -0.374 | glycan array binding signal (z-score) [10]: -0.356 | glycan array binding signal (z-score) [11]: -0.356 | glycan array binding signal (z-score) [12]: -0.357 | glycan array binding signal (z-score) [13]: -0.338 | glycan array binding signal (z-score) [14]: -0.336 | glycan array binding signal (z-score) [15]: -0.347 | glycan array binding signal (z-score) [16]: -0.359 | glycan array binding signal (z-score) [17]: -0.369 | glycan array binding signal (z-score) [18]: -0.364 | glycan array binding signal (z-score) [19]: -0.353 | glycan array binding signal (z-score) [20]: -0.329 | glycan array binding signal (z-score) [21]: -0.356 | glycan array binding signal (z-score) [22]: -0.384 | glycan array binding signal (z-score) [23]: -0.382 | glycan array binding signal (z-score) [24]: -0.382 | glycan array binding signal (z-score) [25]: -0.396 | glycan array binding signal (z-score) [26]: -0.378 | glycan array binding signal (z-score) [27]: -0.396 | glycan array binding signal (z-score) [28]: -0.385 | glycan array binding signal (z-score) [29]: -0.366 | glycan array binding signal (z-score) [30]: -0.399 | glycan array binding signal (z-score) [31]: -0.395 | glycan array binding signal (z-score) [32]: -0.379 | glycan array binding signal (z-score) [33]: -0.383 | glycan array binding signal (z-score) [34]: -0.385 | glycan array binding signal (z-score) [35]: -0.351 | glycan array binding signal (z-score) [36]: -0.385 | glycan array binding signal (z-score) [37]: -0.386

— the supplement of paper PMC8728848
